# Data from paper PMC4336329 (PLoS ONE, 2015).
# Hit rate of the full screen: of about 310,000 compounds, about 2,200 (0.71%) showed an effect of 50% or more. The effect is printed as a negative number. Some of the results follow.
# Biological target: human ether-à-go-go-related gene (hERG) potassium channel (human, UniProt Q12809)
# Test: primary screen, population patch clamp on CHO cells stably expressing hERG
# Chain of human ether-à-go-go-related gene (hERG) potassium channel (Q12809 whole entry, looked up): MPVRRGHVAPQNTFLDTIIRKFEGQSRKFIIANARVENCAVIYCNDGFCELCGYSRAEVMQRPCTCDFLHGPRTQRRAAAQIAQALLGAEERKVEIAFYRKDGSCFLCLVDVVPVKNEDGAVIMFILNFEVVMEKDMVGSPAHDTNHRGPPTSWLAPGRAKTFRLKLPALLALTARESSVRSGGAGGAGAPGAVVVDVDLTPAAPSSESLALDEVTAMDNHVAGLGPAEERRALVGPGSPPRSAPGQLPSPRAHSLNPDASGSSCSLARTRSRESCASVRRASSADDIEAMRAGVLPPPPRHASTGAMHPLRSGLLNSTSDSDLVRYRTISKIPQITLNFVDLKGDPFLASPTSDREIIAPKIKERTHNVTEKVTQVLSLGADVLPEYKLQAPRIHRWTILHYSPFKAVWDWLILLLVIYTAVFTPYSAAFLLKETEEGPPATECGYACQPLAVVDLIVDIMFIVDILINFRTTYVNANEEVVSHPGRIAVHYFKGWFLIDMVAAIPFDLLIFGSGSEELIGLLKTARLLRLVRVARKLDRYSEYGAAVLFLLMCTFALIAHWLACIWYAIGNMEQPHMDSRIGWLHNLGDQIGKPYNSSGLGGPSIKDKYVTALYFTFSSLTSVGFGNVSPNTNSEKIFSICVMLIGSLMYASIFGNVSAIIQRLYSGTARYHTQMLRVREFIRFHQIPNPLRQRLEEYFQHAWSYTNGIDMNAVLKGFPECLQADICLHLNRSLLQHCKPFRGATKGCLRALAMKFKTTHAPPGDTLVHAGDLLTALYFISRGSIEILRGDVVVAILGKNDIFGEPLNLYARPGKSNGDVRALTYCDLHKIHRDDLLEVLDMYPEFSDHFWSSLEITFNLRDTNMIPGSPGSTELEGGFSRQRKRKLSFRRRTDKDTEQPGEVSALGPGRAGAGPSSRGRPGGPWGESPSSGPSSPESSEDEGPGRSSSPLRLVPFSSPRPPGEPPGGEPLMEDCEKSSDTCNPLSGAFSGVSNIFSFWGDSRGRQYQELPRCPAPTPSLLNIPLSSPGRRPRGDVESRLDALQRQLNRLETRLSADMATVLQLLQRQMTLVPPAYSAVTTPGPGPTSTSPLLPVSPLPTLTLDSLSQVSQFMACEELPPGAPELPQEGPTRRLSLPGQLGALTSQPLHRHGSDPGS
row,SMILES,"hERG current change (%, negative = inhibition) at 1uM [%]"
1,Cc1c(Cl)cnc(NC(=O)COC(=O)C2CC3CCCC(C2)C3=O)c1Cl (stereo not shown),14.9
2,Cc1ccc(NC(=O)c2cc(S(=O)(=O)N3CCOCC3)cs2)cc1,0.623
3,CCN(CC)C(=O)C(=O)c1cccn1-c1ccccc1C#N,3.51
4,CNC(=O)c1csc(-c2cccs2)n1,12.6
5,N#CCCn1c(O)c(N=NC(=O)CNC(=O)c2cccs2)c2ccccc21,0.435
6,N#Cc1cc([N+](=O)[O-])ccc1N1CCCC1,-12.3
7,N#CC1CN(Cc2ccccc2)CN(Cc2ccccc2)C1,10.9
8,Cc1ccc(N2CCN(CC(O)COC3CCCCC3)CC2)cc1 (stereo not shown),-14.3
9,COc1ccccc1CNC(=O)COc1ccc(S(=O)(=O)N2CCCC2)cc1,4.11
10,Cc1cc(-c2n[nH]c(=S)n2/N=C/c2ccc(Cl)c([N+](=O)[O-])c2)n[nH]1,11.9
11,CC(=C1C(=O)c2ccccc2C1=O)N1CCN(c2ccc(F)cc2)CC1,-4.99
12,COc1ccc2[nH]c(C(O)(Cc3cccnc3)Cc3cccnc3)cc2c1.O,10.5
13,NC(=O)c1cccc(S(=O)(=O)N2CC(c3ccccc3)CC2=O)c1 (stereo not shown),-1.54
14,O=C1CCN(Cc2ccc(O)cc2)CCN1[C@H](CO)c1ccccc1,0.855
15,COc1ccc(CNC(=O)CN(C(=O)c2snc(C(N)=O)c2N)c2ccc(F)cc2)cc1,8.84
16,Nc1ccccc1NC(=O)CCn1c(=S)[nH]c2ccccc2c1=O,11.4
17,N#Cc1ccc(NC(=O)CSc2nc3[nH]c(=O)cc(O)c3s2)cc1,11.8
18,CC(C)CCC(CCNCc1ccccn1)c1ccc2c(c1)OCO2.Cl (stereo not shown),-79.1
19,CC(C)(C)c1ccc(-c2nnc(SCC(=O)NC3CCS(=O)(=O)C3)n2N)cc1 (stereo not shown),-5.28
20,COc1cc(/C=C2/C(=O)NN(c3ccc(F)cc3)C2=O)cc([N+](=O)[O-])c1O,8.07
21,O=C(O)c1nn(-c2ccccc2C(F)(F)F)cc1O,-4.48
22,COCCn1nnnc1C(c1cccs1)N1CCN(c2ccccc2)CC1 (stereo not shown),-1.61

row,SMILES,"hERG current change (%, negative = inhibition) at 1uM [%]"
1,CCOCCCNC(=O)c1cc2c(=O)n(CC)c3ccccc3c2s1,-0.72
2,Cl.OC(CN1CCNCC1)Cn1c2ccccc2c2ccccc21 (stereo not shown),8.86
3,CCCC[C@@H]1CNCCN1CCc1cc(C(F)(F)F)cc(C(F)(F)F)c1,11.7
4,Cc1cc(-c2nnc3n2N=C(c2ccccc2)CS3)n[nH]1,9.47
5,COc1ccc(C2NCCn3cccc32)cc1.O=C(O)/C=C\C(=O)O (stereo not shown),0.692
6,Cc1cc(NC(=O)CN2CCc3ccccc3C2)nc2c1c(=O)oc1ccccc12,5.95
7,O=C(COc1ccccc1)Nc1cccc(-c2nn[nH]n2)c1,13.2
8,CCCCOP(=O)(c1ccc(N(C)C)cc1)C(O)c1ccncc1 (stereo not shown),5.93
9,CCN(CC)CCNCc1cc(Cl)c(OCC(=O)Nc2ccccc2)c(OC)c1.Cl,2.85
10,Cn1cc(CCC(=O)N2CCCC(CCC(=O)NCc3ccc(F)c(F)c3)C2)cn1 (stereo not shown),1.13
11,Cc1noc(C)c1C(=O)NCCc1ccc(Cl)cc1,-2.23
12,CCCCN(C(=O)CSc1nnc(Nc2ccccc2)s1)c1c(N)n(CCC)c(=O)[nH]c1=O,-0.396
13,CCOc1ccc(N=C2NC(=O)C(CC(=O)O)S2)cc1 (stereo not shown),8.34
14,CN1C(=O)CC(N2CCN(c3ccccn3)CC2)C1=O (stereo not shown),3.16
15,Cc1cc(=O)[nH]c(SCc2nc3ccc([N+](=O)[O-])cc3[nH]2)n1,2.23
16,O=C(Nc1nnc(S(=O)(=O)N2CCCC2)s1)c1ccccc1Cl,-1.16
17,COc1ccc(N2CCN(C(=S)Nc3ccc(S(N)(=O)=O)cc3)CC2)cc1,10.5
18,O=c1nc(N2CCOCC2)ccn1-c1nc(-c2ccccc2)oc1-c1ccccc1,5.6
19,O=C(c1ccco1)N1CCN(c2ccc([N+](=O)[O-])cc2F)CC1,-15.7
20,CCCc1c(CC)c(=N)c2ccccc2n1C.I,-2.76
21,CC(O)CNc1nc2c(c(=O)n(Cc3ccccc3)c(=O)n2C)n1C (stereo not shown),13.5
